The campaign covered roughly 150,000 compounds. About 540 (0.36%) showed an effect of 50% or more. The list shows a part of the results.

The test system of the test is Plasmodium falciparum. Kind of test: Primary screen in NF54 nanoGlo assay, in single point, at 2uM, 72h; a lower Z score goes with more inhibition. In kind it is functional, Erythrocyte. The following applies: timepoint 72 hour.
As usually defined, the % Inhibition is the change of the read-out against control, counted positive when it falls. Take `CC(C)N(C)C(=O)C1CCN(C(=O)[C@@H](N)C(C)(C)C)CC1`: the “% Inhibition” value is -1% and the Z score was 0.1.

With `COc1ccc2c(c1)CN(C(=O)C1(C#N)CCCC1)CC2`, the “% Inhibition” value is given as 0% and the Z score was found to be 0.03.

With `COc1ccc(C(=O)NS(=O)(=O)C2CCCCC2)cn1`, the “% Inhibition” value is listed as -7% and the Z score came out at 1.1.

Turning to `COCCC[C@H]1CCCCN1C(=O)c1ncoc1C1CC1`, the “% Inhibition” value is reported as -7% and the Z score is recorded as 0.92.

Turning to `Cn1ccc(C(=O)N2C3CCC2CC(F)C3)n1` (stereo not drawn), the “% Inhibition” value is -8% and the Z score is recorded as 0.88.

With `CC[C@@H](C(=O)OC)N(C(=O)c1csnc1C)c1ccccc1`, the “% Inhibition” value came out at 1% and the Z score was -0.13.

For the compound `O=C(c1cc(F)ccc1O)N(Cc1ccc(F)cc1)C1CCOCC1`, the “% Inhibition” value is -2% and the Z score was 0.38.

Regarding `O=C(N1CCc2ccccc2C1)C1(c2ccccc2)CCOCC1`, the “% Inhibition” value is recorded as -13% and the Z score was found to be 1.17.

For `O=C(NCc1cccnc1)[C@@H]1CCC(=O)N1C1CCN(C(=O)c2ccccc2F)CC1`, the “% Inhibition” value is reported as -17% and the Z score came to 1.85.

Turning to `CCCCn1c(N)c(N(C(=O)c2nn(C)c(=O)c3ccccc23)C2CCCC2)c(=O)[nH]c1=O`, the “% Inhibition” value is given as -39% and the Z score came out at 4.57.

Regarding `O=C(N[C@H]1CCOC[C@@H]1OCC1CC1)c1ccccc1-c1ccccc1`, the “% Inhibition” value is given as -2% and the Z score is 0.34.

Consider `CCN(C(=O)c1ccc(F)cc1Br)[C@@H](C)CS(=O)(=O)CC`, for which the “% Inhibition” value was -8% and the Z score is listed as 1.49.

Take `Cc1cnc(C2CCC2)n1CCNC(=O)Cc1ccccc1`: the “% Inhibition” value is -1% and the Z score turned out to be 0.19.

On to `C=C(C)CNC(=O)Cc1c2c(n(Cc3ccc(F)cc3)c1C)CCCC2=O`, for which the “% Inhibition” value is reported as -16% and the Z score was 1.47.

Take `Cc1cnccc1N1CCN(C[C@]2(O)CCCN(CC3CCCCC3)C2=O)CC1`: the “% Inhibition” value is -8% and the Z score came to 0.91.

Turning to `Cc1ccc2ccccc2c1NC(=O)NC[C@H]1CCCOC1`, the “% Inhibition” value is listed as -11% and the Z score turned out to be 1.14.

With `CCN(CC)S(=O)(=O)c1ccc2c(c1)CCCN2C(=O)c1ccc2ccccc2c1`, the “% Inhibition” value was found to be 38% and the Z score is listed as -4.87.

`Cc1csc(NC2CCN(C(=O)c3oc(CC4CC4)nc3C)CC2)n1`: the “% Inhibition” value was -13% and the Z score stood at 1.78.

Regarding `CN(Cc1ccc(C#CCO)cc1)C[C@H]1CCCCN1C`, the “% Inhibition” value came to 4% and the Z score is given as -0.81.

On to `Cc1ccc(OCC2CCN(C(=O)c3c[nH]cn3)CC2)nn1`, for which the “% Inhibition” value was 3% and the Z score was -0.37.

As for `CC(C)n1nccc1-c1ccc(CN(C)C)cc1`, the “% Inhibition” value was -15% and the Z score is 1.47.

Take `Cn1c(=O)c2c(nc(CNC3CCCCCCC3)n2Cc2ccccc2)n(C)c1=O`: the “% Inhibition” value was -5% and the Z score amounted to 0.61.

On to `CCOCC(=O)N1CCc2[nH]nc(C(=O)N3CCN(c4ccccc4C)CC3)c2C1`, for which the “% Inhibition” value is recorded as 8% and the Z score is -0.93.

For the compound `CCC(=O)Nc1cc(C(=O)N[C@H]2CCCCNC2=O)c2c(c1)nc(Cc1ccccc1)n2C`, the “% Inhibition” value stood at 1% and the Z score is listed as -0.14.

The record behind these values is ChEMBL document CHEMBL4888484, “Replenishing the malaria drug discovery pipeline: Screening and hit evaluation of the MMV Hit Generation Library 1 (HGL1) against asexual blood stage Plasmodium falciparum ,using a nano luciferase reporter read-out” (2022).
